# Results reported in the BET-seq Pho4 binding data (Le et al. 2018).
# Some of the results follow. Values were computed here from the reads of four pooled replicates and scatter widely.
# Biological target: T1, Pho4 (S. cerevisiae) (UniProt P07270)
# T1 sequence: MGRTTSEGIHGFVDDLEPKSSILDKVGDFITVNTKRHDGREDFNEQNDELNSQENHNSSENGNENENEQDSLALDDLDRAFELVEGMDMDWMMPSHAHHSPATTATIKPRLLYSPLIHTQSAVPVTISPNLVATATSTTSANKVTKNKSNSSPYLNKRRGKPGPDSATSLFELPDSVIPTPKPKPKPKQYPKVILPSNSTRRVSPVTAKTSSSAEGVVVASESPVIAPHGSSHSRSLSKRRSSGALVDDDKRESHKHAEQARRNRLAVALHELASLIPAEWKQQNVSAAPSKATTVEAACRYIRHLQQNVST
# Assay: relative binding free energy (BET-seq); higher = weaker binding
# Conditions: reference: library average
row,Sequence,relative binding free energy [kcal/mol]
1,GTTGCCACGTGGGGAG,-0.17
2,TGTGTCACGTGTGGCA,0.1
3,TCAATCACGTGGAGGG,0.12
4,TAAAACACGTGAGGAG,0.47
5,TGTGGCACGTGGAAAG,-0.11
6,GAGTTCACGTGGTTGA,0.23
7,AGATGCACGTGGTACT,-0.05
8,AAGTACACGTGAGAGG,0.38
9,AGCGGCACGTGCGGGC,-0.28
10,CGAGTCACGTGGGGCA,-0.04
11,TGGAACACGTGGTGAG,-0.07
12,GTTAGCACGTGCCGGG,0.01
13,TATAGCACGTGTTGCT,-0.18
14,ATATGCACGTGGCGTT,-0.15
15,TGTTACACGTGAAGGG,0.36
16,CGTTTCACGTGCTTAG,0.22
17,TAGAGCACGTGATGTA,0.06
18,AGCGTCACGTGGTGCA,-0.03
19,AACGACACGTGGGGTT,-0.07
20,GTAGCCACGTGGGCGT,-0.04
21,TGTATCACGTGGGTGG,0.05
22,GTGTTCACGTGCAAGT,0.3
23,GCAGTCACGTGAAGGG,0.21

row,Sequence,relative binding free energy [kcal/mol]
1,GTCTTCACGTGTGATT,0.36
2,GGGCACACGTGATAGT,0.24
3,AGGTGCACGTGCAGTT,0.03
4,TTTGTCACGTGTCATG,0.07
5,TGTCACACGTGATGTA,0.19
6,GGGGTCACGTGTAGGC,0.24
7,GGGTGCACGTGTATAG,0.02
8,TTGTGCACGTGTACTA,-0.08
9,CATGGCACGTGGGACG,-0.18
10,TTTAACACGTGATTGT,0.17
11,ATTGCCACGTGGTATG,-0.17
12,GAATGCACGTGGGTGC,-0.18
13,GGGTTCACGTGTGAAG,0.31
14,AGGCGCACGTGGGTAT,-0.12
15,GTTGCCACGTGGGGCA,-0.31
16,TTTGTCACGTGAGGTC,0.15
17,TGGGACACGTGATGTC,0.07
18,TGCAGCACGTGAGTTT,0.3
19,GAGTTCACGTGTGCGA,0.37
20,CGCTGCACGTGGAGGT,-0.13
21,TTTGCCACGTGTATGG,-0.03
22,GTACACACGTGGGGAG,-0.1
23,TCTGGCACGTGGGTTC,-0.12

row,Sequence,relative binding free energy [kcal/mol]
1,TGCGGCACGTGTTGGA,-0.23
2,GTAGACACGTGGAAGT,-0.04
3,GTTTACACGTGGCGGG,0.24
4,CATCTCACGTGTGGGT,0.21
5,ATTGGCACGTGTGCGT,-0.04
6,GTTGCCACGTGTGGTA,0
7,TGGGCCACGTGGAAGA,0.07
8,GTAATCACGTGTTAGA,0.07
9,TAGGCCACGTGTGTTT,-0.01
10,TTTATCACGTGGCTTC,0.26
11,CGGTGCACGTGGGCAT,-0.17
12,TTAAACACGTGATTTG,0.09
13,GTAGCCACGTGTGGGC,-0.03
14,CTAGTCACGTGTAAGG,0.13
15,GTTTTCACGTGCTTGA,0.36
16,ATTTTCACGTGCCGTT,0.21
17,GGGGGCACGTGACGAT,0.06
18,AGGAGCACGTGAAGGG,0.31
19,ATTTGCACGTGGGAGC,-0.03
20,TGTGTCACGTGCGCAG,-0.16
21,CTTCGCACGTGGCGGG,-0.14
22,AGTTGCACGTGGGACC,-0.02
23,TTGTGCACGTGGCATT,-0.28

row,Sequence,relative binding free energy [kcal/mol]
1,ATCTTCACGTGCGGTG,0.18
2,CGTTTCACGTGTTGAG,0.24
3,TTTTACACGTGTGGCT,0.17
4,TTGGGCACGTGATAAA,-0.09
5,GGGACCACGTGTATGT,0
6,GGTTTCACGTGTTACT,0.33
7,TAGGACACGTGTTATA,-0.05
8,GGAATCACGTGAGTAT,0.51
9,CTGTTCACGTGTGGCA,0.2
10,AGGGGCACGTGATTGG,-0.05
11,GTGACCACGTGATTGT,0.29
12,CGGGCCACGTGGTGCG,-0.16
13,AGTGCCACGTGAGGTA,0.17
14,TTCGTCACGTGTCAGG,0.07
15,ATTATCACGTGAGGGT,0.32
16,GGCGCCACGTGGGTGT,-0.13
17,GATGGCACGTGAGGCT,0.09
18,GATATCACGTGGGCTT,0.06
19,GGAGGCACGTGAGACT,0.28
20,TCTTACACGTGCGTGG,0.23
21,TCGGGCACGTGTGAAG,0.04
22,TCTAGCACGTGTGGAG,0.14
23,CGTTTCACGTGGTAGT,0.23

row,Sequence,relative binding free energy [kcal/mol]
1,GAAAGCACGTGTATGG,0.16
2,CGTGACACGTGAGGTG,0.08
3,AGTTTCACGTGGTAAA,0.38
4,AGAAGCACGTGGGTGC,-0.25
5,GTGCACACGTGTTCGG,0.19
6,ATTGACACGTGATTTG,0.01
7,GGAGTCACGTGATTAG,0.19
8,ATCGGCACGTGGGAAG,-0.24
9,GTTTACACGTGAAATG,0.31
10,TAGGTCACGTGGGCTG,-0.01
11,CGTAACACGTGGGAAG,0.06
12,GTGTACACGTGGAGGC,-0.1
13,AAAATCACGTGAAGTT,0.49
14,GTTTGCACGTGGATTA,0.13
15,TGTCGCACGTGATTGA,0
16,TACGACACGTGATGGG,0.22
17,TGTCGCACGTGGTGCT,-0.19
18,GGAGTCACGTGGTTGT,0.11
19,TAGCGCACGTGAGAGT,0.11
20,TTTATCACGTGAATTC,0.38
21,TCGTACACGTGAGGTG,0.23
22,AATTTCACGTGATGTT,0.34
23,GGTATCACGTGCGGCT,0.18
